Screen size: about 270,000 compounds; about 5,800 (2.1%) were called active. The shares of active, inactive and inconclusive entries below differ from those in the screen. The call rests on the fitted dose curve; in most records, active means well fitted inhibition curve with a large enough effect; inconclusive means small, poorly fitted or top-dose-only effect; inactive means flat fitted curve, though single readings scatter. Potencies beside an inconclusive call are fits to weak or partial responses and may not hold up.
target: Microtubule-associated protein tau (Homo sapiens) (UniProt P10636); experiment: qHTS for Inhibitors of Tau Fibril Formation, Thioflavin T Binding; settings: recombinant tau K18 P301L (four-repeat tau fragment), heparin-induced fibrillization, ThT fluorescence; series mostly up to 57.4 µM; further: nearly all actives have a fitted effect of over 55% in size
Method in brief: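 Recombinant human tau K18 fragment […] carrying P301L, 15 uM unlabeled plus 0.24 uM Alexa 594-labeled, was fibrillized with 20 uM heparin in 100 mM sodium acetate pH 7 for 6 hr at 37 C; 30 uM ThT fluorescence read after 1 hr.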
Potency means the concentration at half of the fitted maximal effect; tags describe the fitted curve by direction and shape.

Sequence of UniProt P10636 (P10636 whole entry, looked up, the tested form may be a part): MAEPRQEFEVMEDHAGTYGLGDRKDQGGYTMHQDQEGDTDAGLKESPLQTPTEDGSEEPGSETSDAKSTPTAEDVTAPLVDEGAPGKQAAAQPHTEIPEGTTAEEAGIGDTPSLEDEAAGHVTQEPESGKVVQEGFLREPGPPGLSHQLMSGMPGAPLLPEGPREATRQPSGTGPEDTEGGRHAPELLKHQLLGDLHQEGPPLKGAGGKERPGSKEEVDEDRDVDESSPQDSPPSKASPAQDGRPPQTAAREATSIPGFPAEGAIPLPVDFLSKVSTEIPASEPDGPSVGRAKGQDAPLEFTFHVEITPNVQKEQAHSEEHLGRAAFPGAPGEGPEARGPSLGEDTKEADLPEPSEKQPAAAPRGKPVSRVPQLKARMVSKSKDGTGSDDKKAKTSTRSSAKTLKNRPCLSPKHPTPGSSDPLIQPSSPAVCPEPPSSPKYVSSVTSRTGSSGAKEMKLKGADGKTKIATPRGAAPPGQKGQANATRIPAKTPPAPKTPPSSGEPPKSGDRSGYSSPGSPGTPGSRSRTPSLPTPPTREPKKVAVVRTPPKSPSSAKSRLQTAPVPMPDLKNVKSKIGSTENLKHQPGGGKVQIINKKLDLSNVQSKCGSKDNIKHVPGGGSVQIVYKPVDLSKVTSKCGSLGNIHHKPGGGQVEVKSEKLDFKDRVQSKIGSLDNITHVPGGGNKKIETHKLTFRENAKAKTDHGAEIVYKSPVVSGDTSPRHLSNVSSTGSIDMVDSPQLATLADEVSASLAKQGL

SMILES	Potency
CN(C)c1ccc(/C=N/NC(=O)CNC(=O)c2ccc3c(c2)OCCO3)cc1	inconclusive: 11.2 µM [inhibitor, partial curve]
CSc1ccccc1NC(=O)COc1ccccc1C	inconclusive: 20 µM [inhibitor, single point]
Cc1ccc(N2CCn3c2nc2c3c(=O)n(CCCc3ccccc3)c(=O)n2C)cc1	inactive
O=C1CCCCCN1Sc1ccccc1	active: 14.1 µM
NC(=O)CS(=O)(=O)c1nc2ccccc2n1Cc1ccccc1F	inactive
CCN1C(=O)NC2=C(C(=O)c3ccccc32)C1c1ccccc1F (stereo not drawn)	inconclusive: 20 µM [inhibitor, single point]
CCOC(=O)c1ccc(NC(=O)Nc2ccc3snnc3c2)cc1	inactive
COc1cc(C=C2C(=O)c3ccccc3C2=O)cc(OC)c1OC	active: 14.1 µM
COc1ccc(C(=O)NCCc2nc3cc([N+](=O)[O-])ccc3n2C)cc1	inconclusive: 20 µM [inhibitor, partial curve]
CNc1ccc(Br)cc(C(=O)/C=C/c2ccc(OC)cc2)c1=O	active: 14.1 µM
Cc1ccc(Nc2nc(N)c([N+](=O)[O-])c(N3CCOCC3)n2)cc1C	inconclusive: 7.08 µM [inhibitor, single point]
O=c1cc2c(nn1Cc1cccc(Cl)c1)-c1ccccc1CC2	inconclusive: 35.5 µM [inhibitor, partial curve]
CC(C)(C)C(=O)NC(NC(=S)Nc1sc2c(c1C#N)CCCC2)C(Cl)(Cl)Cl (stereo not drawn)	inconclusive: 2.82 µM [inhibitor, partial curve]
COc1ccc(-c2nc(CS(=O)CC(=O)NC3CCCc4ccccc43)c(C)o2)cc1OC (stereo not drawn)	inconclusive: 22.4 µM [inhibitor, partial curve, poor fit]
C#CCn1c(/C=C/c2ccc(Cl)cc2)nc2ccccc21	inconclusive: 12.6 µM [inhibitor, partial curve]
O=C(COC(=O)c1ccccc1NC(=O)c1ccccc1)c1ccc([N+](=O)[O-])cc1	inconclusive: 14.1 µM [inhibitor, partial curve]
O=C(NCc1nnc2c3ccccc3c(-c3ccccc3)nn12)c1ccc(Cl)cc1	inconclusive: 39.8 µM [inhibitor, single point]
Brc1c(OCCOCCn2cncn2)ccc2ccccc12	inconclusive: 14.1 µM [inhibitor, partial curve, poor fit]
CN(CC/C=C1/c2ccccc2CSc2ccccc21)CCCO	inconclusive: 28.2 µM [inhibitor, single point]
CCC(C(=O)N1CCN(c2cc(Cl)ccc2C)CC1)n1nc(C)c2sc3ccccc3c2c1=O (stereo not drawn)	inactive
OCCN=C1CCCc2c1[nH]c1ccc(Br)cc21	inconclusive: 28.2 µM [inhibitor, partial curve, poor fit]
C/C(=N\NC(=O)CSc1nc2ccccc2s1)c1ccco1	inconclusive: 31.6 µM [inhibitor, single point]
CCC(CC)C(=O)Nc1ccc(C(=O)OCc2cc(=O)n3nc(C4CC4)sc3n2)cc1	inactive

SMILES	Potency
CCC(=O)N/N=C(\C)CC(=O)Nc1ccc2c(c1)OCCO2	inconclusive: 0.316 µM [inhibitor, full curve, poor fit]
COc1ccc(-c2nnc(SCC(=O)Nc3nncs3)o2)cc1	inconclusive: 1.41 µM [inhibitor, full curve]
COc1ccc(C/C(C)=N/NC(=S)Nc2ccc(C)c(C)c2)cc1	inconclusive: 28.2 µM [inhibitor, partial curve]
O=C(CCn1c(=O)c2cccn2c2cccnc21)NCc1ccccc1Br	inactive
Cc1ccc(S(=O)(=O)N(C)CC(=O)OCC(=O)N2CCN(c3ccccc3)CC2)cc1	inconclusive: 20 µM [inhibitor, partial curve]
COc1ccc(N2CCN(C(=O)Cn3nnc(-c4ccc(N(C)C)cc4)n3)CC2)cc1	inconclusive: 1.41 µM [inhibitor, full curve]
CCc1ccc(-n2c(SCC(=O)NC(C)CC)nc3n[nH]c(C)c3c2=N)cc1 (stereo not drawn)	inactive
Nc1[nH]n2c(=O)cc(-c3ccccc3)nc2c1N=Nc1ccc(S(N)(=O)=O)cc1	active: 2.24 µM
COc1ccc(N2CC(NC(=O)c3ccc4c(c3)OCO4)CC2=O)cc1OC (stereo not drawn)	inactive
COc1ccc2c(c1)c1c(c(=O)n(-c3ccccc3)c(=O)n1CC(=O)Nc1ccc(F)cc1)n2C	inactive
COc1ccc(OC)c(CNc2ccc([N+](=O)[O-])cc2C)c1	inconclusive: 31.6 µM [inhibitor, partial curve]
CNC(=O)c1ccc(-c2nc(-c3ccccc3)cs2)cc1	inconclusive: 8.91 µM [inhibitor, partial curve]
N#C/C(=C\c1ccc(O)c(O)c1)C(=O)c1ccc(O)c(O)c1	inconclusive: 15.8 µM [inhibitor, partial curve]
COc1ccc(NC(=O)Cc2csc(COc3cccc(C)c3)n2)cc1OC	inconclusive: 39.8 µM [inhibitor, single point]
COc1ccc(N2CCN(c3nc(NCCc4ccc(OC)c(OC)c4)nc(OC)n3)CC2)cc1	inconclusive: 10 µM [inhibitor, partial curve]
Cc1c(-c2ccccc2)c(=O)oc2c(CN3CCN(C)CC3)c(O)ccc12	inactive
CCC1(C(=O)OC)CCc2c(cc(OC)c3ccccc23)C1=O (stereo not drawn)	inconclusive: 15.8 µM [inhibitor, partial curve, poor fit]
COc1ccc(N(C(=O)c2ccco2)S(=O)(=O)c2cc(Cl)c(Cl)cc2Cl)cc1	inconclusive: 22.4 µM [inhibitor, partial curve]
COc1ccc(C2CC(c3ccccc3)=NN2c2ccc(Cl)c(C(=O)O)c2)cc1 (stereo not drawn)	inconclusive: 20 µM [inhibitor, single point]
CCCOc1ccc(Cl)cc1CNc1ccccc1	inconclusive: 0.631 µM [inhibitor, full curve, poor fit]
Cc1cc(NC(=O)c2ccc(-c3ccc(Br)cc3)o2)cc(-c2nc3ncccc3o2)c1O	inconclusive: 31.6 µM [inhibitor, partial curve]
COCOc1ccc(OC)cc1C(=O)/C=C/c1ccc(OC)c(Br)c1	inconclusive: 0.0562 µM [inhibitor, full curve, poor fit]
CC(/C=N/n1c(-c2ccccc2)n[nH]c1=S)=C\c1ccco1	inconclusive: 28.2 µM [inhibitor, single point]

SMILES	Potency
CCc1ccc(C(=O)/C=C/Nc2ccc(S(=O)(=O)Nc3onc(C)c3C)cc2)cc1	inconclusive: 10 µM [inhibitor, partial curve]
CC1CCN(CCOc2ccc(Cl)c(Cl)c2)CC1	inactive
O=S(=O)(c1ccccc1)c1ncc(C(F)(F)F)cc1Cl	inconclusive: 25.1 µM [inhibitor, partial curve]
Cc1cc(/C=N/O)c(C)n1-c1cccc(Cl)c1	inconclusive: 28.2 µM [inhibitor, single point]
O=C(NCCc1ccccc1)C1CCN(S(=O)(=O)c2cccs2)CC1	inactive
N/C(=N\NC(=O)Nc1ccc(Cl)cc1)c1ccccn1	inconclusive: 25.1 µM [inhibitor, partial curve]
COC(=O)C1=C(C)N(c2ccc(C)c(C)c2)/C(=C/c2ccc(O)cc2)C1=O	inconclusive: 28.2 µM [inhibitor, partial curve]
Cc1ccc(Cl)cc1N1CCN(C(=O)c2cccn2-c2nnc(N3CCCCC3)s2)CC1	inconclusive: 39.8 µM [inhibitor, single point]
CCOC(=O)C(=O)/C(C#N)=C/Nc1ccc(Cl)cc1	inactive
Cc1nn(-c2ccc(C(F)(F)F)cn2)c(C)c1Oc1ccccc1O	inconclusive: 35.5 µM [inhibitor, partial curve]
Cc1c(C(=O)OCC(C)C)[nH]c2c1C(=O)CC(c1ccco1)C2 (stereo not drawn)	inconclusive: 11.2 µM [inhibitor, partial curve]
CCCSc1ncc(Cl)c(C(=O)Nc2sc3c(c2C(=O)NCC)CCCC3)n1	inactive
CCOc1cccc(/C=N/NC(=S)Nc2ccccc2[N+](=O)[O-])c1O	inconclusive: 6.31 µM [inhibitor, partial curve]
Cc1ccc(-n2cc(C(=O)O)c(=O)cc2C)c(C)c1	inactive
COc1ccc(-n2cc(CNCCCn3ccnc3)c(-c3cccc(F)c3)n2)cc1	inactive
CCn1c(=O)c2c(n3c(=S)[nH]nc13)-c1ccccc1CC21CCCCC1	inconclusive: 20 µM [inhibitor, partial curve]
CCOc1ccc(-n2c([S-])c(C(=O)Nc3ccc(S(=O)(=O)N4CCOCC4)cc3)[n+]3cc(C(N)=O)ccc23)cc1	inconclusive: 39.8 µM [inhibitor, single point]
Cc1cc(C)nc(SCc2cc(=O)c(OC(=O)c3ccc(Br)o3)co2)n1	inconclusive: 14.1 µM [inhibitor, partial curve]
Cc1ccc(/C=C/C(=O)N2CCCN(C(=O)/C=C/c3ccc(C)cc3)CC2)cc1	inconclusive: 28.2 µM [inhibitor, partial curve]
CCn1nnnc1SCC(=O)NCc1ccco1	inconclusive: 39.8 µM [inhibitor, single point]
CCC(C)(C)n1nnnc1C(c1cc2cc(C)cc(C)c2[nH]c1=O)N1CCCC1 (stereo not drawn)	inconclusive: 31.6 µM [inhibitor, partial curve]
CC(=O)OCCc1c(C)nc2nc[nH]n2c1=O	inactive

Source: PubChem BioAssay AID1460 (National Center for Advancing Translational Sciences (NCATS), 2008)
